Bounds are passed on as bounds.

One assay concerns murine neutrophils. Briefly: In vitro neutrophil death / survival of cultured murine neutrophils. Type of assay: cell-based, mouse.
A further assay concerns human neutrophils. Briefly: In vitro neutrophil death / survival of cultured human neutrophils.

As for “Hsp70: Heat Shock Protein 70, LMP inhibitor; recombinant human or mouse Hsp70 protein”, the “Neutrophil survival after 3 days - normalized to fresh neutrophils (100)” value in the assay on murine neutrophils (10 pM), in the assay with murine neutrophils (100 pM), in the assay with murine neutrophils (1 nM), in the assay with murine neutrophils (10 nM), with murine neutrophils (100 nM) and in the assay with murine neutrophils (200 nM) was below 10 each time. The “Neutrophil survival after 3 days - normalized to fresh neutrophils (100)” value in the assay with human neutrophils (10 pM), with human neutrophils (100 pM), in the assay on human neutrophils (1 nM), in the assay on human neutrophils (10 nM), in the assay on human neutrophils (100 nM) and in the assay with human neutrophils (200 nM) was below 25 in each case.

B1: G-CSF: granulocyte colony-stimulating factor (AMGEN, NEUPOGEN), PI3K/Akt pathway stimulator (protein, listed as Homo sapiens)
chain: MTPLGPASSLPQSFLLKCLEQVRKIQGDGAALQEKLCATYKLCHPEELVLLGHSLGIPWAPLSSCPSQALQLAGCLSQLHSGLFLYQGLLQALEGISPELGPTLDTLQLDVADFATTIWQQMEELGMAPALQPTQGAMPAFASAFQRRAGGVLVASHLQSFLEVSYRVLRHLAQP
For B1, the “Neutrophil survival after 3 days - normalized to fresh neutrophils (100)” value with murine neutrophils (1 ng/ml) was found to be 19 ± 2.3; in the assay with murine neutrophils (10 ng/ml), 21 ± 2.3; in the assay on murine neutrophils (100 ng/ml), 21 ± 1.5; in the assay on murine neutrophils (1 μg/ml), 21 ± 1.8; in the assay with murine neutrophils (10 μg/ml), 21 ± 1.2; with human neutrophils (1 ng/ml), 31 ± 2.1. Further, the “Neutrophil survival after 3 days - normalized to fresh neutrophils (100)” value in the assay on human neutrophils (10 ng/ml) stood at 35 ± 4.5; in the assay on human neutrophils (100 ng/ml), 30 ± 5.5; in the assay with human neutrophils (200 ng/ml), 31 ± 2.1; with human neutrophils (1 μg/ml) it was 34 ± 3.2; in the assay on human neutrophils (10 μg/ml) it was 32 ± 5.4.

Values taken from patent US20240287457A1, “COMPOSITIONS AND CELL CULTURE MEDIA FOR INCREASING NEUTROPHIL LIFESPAN” (THE CHILDREN'S MEDICAL CENTER CORPORATION, priority 2021, published 2024).
